# From PubChem BioAssay AID686978 (National Center for Advancing Translational Sciences (NCATS), 2013)
# Values joined by “and” are separate entries in the source; they are usually repeats but may differ in a detail not shown here. Identical values can stand only once. The whole screen tested about 420,000 compounds, of which about 64,000 (15%) were called active. Inconclusive results, whose numbers are uncertain, are shown with a selection of clear calls. Calls follow the shape of the dose curve; as a rule, active = well fitted inhibition curve with a large enough effect; inconclusive = small, poorly fitted or top-dose-only effect; inactive = flat fitted curve, though single readings scatter. Potencies beside an inconclusive call are fits to weak or partial responses and may not hold up.
# Test: qHTS for Inhibitors of human tyrosyl-DNA phosphodiesterase 1 (TDP1): qHTS in cells in absence of CPT; also: nearly all actives have a fitted effect of over 55% in size
# Settings: DT40 Tdp1-/- hTDP1 cells, no CPT, ATP luminescence, 48 h; series mostly up to 46.2 µM
# How it was run: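 Cells were dispensed at 400 per well, compounds added by pin tool, plates incubated ≥48 hr at 37 °C, then CellTiter-Glo added for 30 min at room temperature before luminescence reading. Line: DT40 Tdp1-/- complemented with hTDP1; camptothecin omitted.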
# Potency is read from the fitted curve at half-maximal effect; tags tell the direction and shape of the fitted curve.
row,Compound,Potency
1,COc1cc(/C=N/Nc2ccc(F)cc2F)cc(OC)c1OC,"inconclusive: 29.1 µM [inhibitor, single point]"
2,C/C=C/c1ccc(OCC(=O)OCc2csc(Nc3ccc(C)cc3)n2)c(OC)c1,inactive
3,CCOC(=O)C1CCN(c2ccc(C(=O)O)cc2[N+](=O)[O-])CC1,inactive
4,Cc1cc(OCC(=O)Nc2nccs2)c2c(C)c(C)c(=O)oc2c1,"inconclusive: 6.51 µM [inhibitor, partial curve]"
5,COCC(=O)N1CCC[C@@]2(CCN(Cc3cc(C(F)(F)F)cc(C(F)(F)F)c3)C2)C1,"inconclusive: 9.2 µM [inhibitor, partial curve, poor fit]"
6,Cc1ccc(C)c(-n2cc(CN3CCCN(C=O)CC3)c(-c3ccccc3)n2)c1,inactive
7,Cc1c(N)nc([C@H](CC(N)=O)NC[C@H](N)C(N)=O)nc1C(=O)N[C@H](C(=O)N[C@H](C)[C@@H](O)[C@H](C)C(=O)N[C@H](C(=O)NCCc1nc(-c2nc(C(=O)NCCCCN=C(N)N)cs2)cs1)[C@@H](C)O)[C@@H](O[C@@H]1O[C@@H](CO)[C@@H](O)[C@H](O)[C@@H]1O[C@H]1O[C@H](CO)[C@@H](O)[C@H](OC(N)=O)[C@@H]1O)c1cnc[nH]1,active: 2.91 µM and active: 944 nM
8,COc1ccccc1CNC(=O)CCn1c(=O)c2ccccc2n(CC(=O)Nc2cc(Cl)ccc2C)c1=O,"inconclusive: 8.2 µM [inhibitor, partial curve, poor fit]"
9,CCC(=O)N1CCc2cc(S(=O)(=O)NCCCN(CC)Cc3ccccc3)ccc21,"inconclusive: 18.4 µM [inhibitor, partial curve]"
10,COc1cc(NC(=O)c2cc(-c3cccc(O)c3)on2)cc(OC)c1OC,active: 13 µM
11,CCc1cccc(NC(=O)CSc2ncc3c(n2)-c2cc(Cl)ccc2N(C)S3(=O)=O)c1,"inconclusive: 18.4 µM [inhibitor, single point]"
12,COc1cc2c(cc1OC)C(Nn1cnnc1)=NC1(CCCC1)C2,inactive
13,CCOC(=O)c1ccc(N2C(=O)c3[nH]nc(-c4ccc(OC)cc4)c3C2c2cccc(O)c2)cc1 (stereo not given),active: 20.6 µM
14,O=C1COc2ccc(S(=O)(=O)NCc3ccc(Cl)cc3)cc2N1,"inconclusive: 29.1 µM [inhibitor, single point]"
15,COc1cccc(C(=O)Nc2ccc(C3CC3(Cl)Cl)cc2)c1 (stereo not given),"inconclusive: 29.1 µM [inhibitor, single point]"
16,O=C(Cn1cnc2cc([N+](=O)[O-])ccc2c1=O)Nc1cccc(S(=O)(=O)N2CCCCC2)c1,"inconclusive: 18.4 µM [inhibitor, partial curve]"
17,c1ccc2nc3c(ccc4ccccc43)cc2c1,inactive
18,Cc1nc(SCC(=O)NC2(C#N)CCCC2)n(CC(C)C)c1C,"inconclusive: 11.6 µM [inhibitor, partial curve]"
19,O=c1cc(COc2ccccc2Cl)nc2scc(-c3ccccc3)n12,"inconclusive: 16.4 µM [inhibitor, partial curve, poor fit]"
20,NC(=O)C1CN(C(=O)c2nn(Cc3ccccc3)c(=O)c3ccccc23)c2ccccc2O1 (stereo not given),"inconclusive: 20.6 µM [inhibitor, single point]"
21,C#CCNC(=O)C[C@@H]1C[C@@]2(C(=O)OCC)CCCC=C2N(Cc2ccc(Cl)cc2Cl)C1=O,"inconclusive: 29.1 µM [inhibitor, single point]"
22,OCCOC1CCCc2oc(-c3ccccc3)c(C#CC3(O)CCCCC3)c21 (stereo not given),"inconclusive: 23.1 µM [inhibitor, single point]"

row,Compound,Potency
1,CC(NCCCSc1ccccc1)C(O)c1ccc(O)cc1 (stereo not given),"inconclusive: 23.1 µM [inhibitor, single point]"
2,Cn1nc(CSc2ccccc2)c(C=O)c1Cl,inactive
3,Cc1nn(-c2ccccn2)c2c1C(=O)CC(C)(C)C2N=[N+]=[N-] (stereo not given),"inconclusive: 29.1 µM [inhibitor, partial curve, poor fit]"
4,O=C(NCc1ccccc1)c1ccc(N2CCC3(CC2)CC(c2ccc(Cl)cc2)=NO3)c([N+](=O)[O-])c1,"inconclusive: 6.51 µM [inhibitor, partial curve]"
5,COC(=O)c1ccc(Cn2nnc3c(=O)[nH]c(C4CCN(S(=O)(=O)c5cc(C)ccc5C)CC4)nc32)cc1,"inconclusive: 29.1 µM [inhibitor, single point]"
6,Nc1ccc(-c2nc3ccc([N+](=O)[O-])cc3[nH]2)cc1,"inconclusive: 18.4 µM [inhibitor, single point]"
7,Nc1c(C(=O)NCC2CCCO2)sc(=S)n1-c1ccccc1 (stereo not given),"inconclusive: 29.1 µM [inhibitor, single point]"
8,O=C1NC[C@@H](Cc2ccc(O)cc2)N(CCc2cccc3ccccc23)C1=O,inactive
9,CC(=O)O/C(=C\c1cn(C(C)=O)c2ccccc12)C(=O)O,inactive
10,COc1ccc(C(=O)COc2cccc(NC(=O)c3ccco3)c2)cc1,active: 18.4 µM
11,Cc1ccc(C2NC(=O)c3n[nH]c(-c4cccs4)c32)cc1 (stereo not given),active: 18.4 µM
12,COc1ccc(CCNC(=O)CSc2ccc3nnc(CCNC(=O)c4ccccc4)n3n2)cc1OC,inactive
13,CC(=O)Nc1nc(-c2ccc(Br)s2)cs1,inactive
14,COc1ccc(C2CC(=O)Oc3cc(C)cc(C)c32)cc1 (stereo not given),"inconclusive: 29.1 µM [inhibitor, single point]"
15,CC(C)OCCCN1CN(S(=O)(=O)c2ccccc2)c2nc3ccccc3nc21,"inconclusive: 20.6 µM [inhibitor, single point]"
16,N=c1n(Cc2ccccc2)c2ccccc2n1CC(O)COc1ccccc1 (stereo not given),active: 6.51 µM
17,O=C(Nc1cccc(Cl)c1)N(Cc1nc2ccccc2c(=O)[nH]1)Cc1cccs1,active: 23.1 µM
18,COc1ccccc1C(=O)NCc1ccco1,inactive
19,Cc1cccc(-c2nc(NCCCN(C)C)c3ccccc3n2)c1,"inconclusive: 5.17 µM [inhibitor, single point]"
20,CN(C)CCNC(=O)CN1C(=O)CSc2ccc(S(=O)(=O)N3CCCCC3)cc21,inactive
21,O=c1[nH]c(=S)[nH]c2c1C(C1CCCCC1)OC(C1CCCCC1)C2 (stereo not given),"inconclusive: 20.6 µM [inhibitor, single point]"
22,CCCn1c(SCC(=O)N2c3ccccc3Sc3ccccc32)nc2ccccc21,"inconclusive: 23.1 µM [inhibitor, single point]"

row,Compound,Potency
1,C[C@]12C=CC(=O)C=C1[C@@H](F)C[C@@H]1[C@@H]2[C@@H](O)C[C@@]2(C)[C@H]1CC[C@]2(O)C(=O)CO,"inconclusive: 15 µM [inhibitor, partial curve, poor fit] and inconclusive: 18.8 µM [inhibitor, partial curve]"
2,COCCNC(=O)C1CCCN(Cc2cccc(C#N)c2)CC1 (stereo not given),inactive
3,CSc1nc(Oc2ccc(F)cc2)c2ccccc2n1,inactive
4,O=C(Nc1ccc(Cl)c(S(=O)(=O)N2CCOCC2)c1)c1cc2ccccc2oc1=O,"inconclusive: 3.66 µM [inhibitor, full curve]"
5,COc1cccc(-c2ccc3c(c2)O[C@@H](CN(C)C(=O)C2CCOCC2)[C@H](C)CN([C@H](C)CO)S3(=O)=O)c1,"inconclusive: 18.4 µM [inhibitor, partial curve]"
6,CCC(C)NC(=O)CCSc1nc(-c2ccc3c(c2)OCO3)cc(C(F)(F)F)n1 (stereo not given),"inconclusive: 29.1 µM [inhibitor, single point]"
7,COc1ccc(NC(=O)CCS(=O)(=O)c2nc(-c3ccc4c(c3)OCO4)cc(C(F)(F)F)n2)cc1OC,"inconclusive: 29.1 µM [inhibitor, single point]"
8,COc1ccccc1-c1ccc2c(c1)C(C)(Cc1ccc(Cl)c(Cl)c1)C(=O)N2 (stereo not given),"inconclusive: 29.1 µM [inhibitor, single point]"
9,C=CCn1cc(/C=C2\SC(N3CCOCC3)=NC2=O)c2ccccc21,"inconclusive: 16.4 µM [inhibitor, single point]"
10,COc1cc(OC)cc(C2=Cc3ccc(OC)cc3C(CC(C)=O)N2c2ccc(C#CC3(N)CCCCC3)cc2)c1 (stereo not given),active: 25.9 µM
11,O=C(CN1C(=O)c2ccccc2C1=O)Nc1ccc(Cl)cn1,inactive
12,COc1ccc(NC(=O)CN(C)C(=O)Cn2cnc3c2c(=O)n(C)c(=O)n3C)cc1,inactive
13,O=C(/C=C/c1ccc(Br)o1)NC(c1ccccc1)c1ccccc1,"inconclusive: 11.6 µM [inhibitor, partial curve, poor fit]"
14,CC(C)Oc1ccc(CNC(=S)Nc2ccccc2)cc1Cl,"inconclusive: 29.1 µM [inhibitor, single point]"
15,COc1cc(C(=O)NCc2ccc3c(c2)CCN3C(=O)c2ccc(Cl)cc2)cc(OC)c1OC,active: 14.6 µM
16,COc1ccc(CN2CCC(Cc3ccccc3)CC2)c(C)c1C,"inconclusive: 25.9 µM [inhibitor, single point]"
17,COC(=O)c1c(NC(=O)Cc2coc3cc(C)cc(C)c23)sc2c1CCC2,"inconclusive: 29.1 µM [inhibitor, single point]"
18,COCCNC(=S)Nc1ccc2nc(N3CCOCC3)cc(C)c2c1,inactive
19,CCOc1ccc(S(=O)(=O)N2CCCC(C(=O)Nc3ccccc3)C2)cc1 (stereo not given),"inconclusive: 13 µM [inhibitor, partial curve]"
20,Cc1ccc(NC(=O)CSc2nc3ccc(NC(=O)c4ccco4)cc3s2)cc1,"inconclusive: 8.2 µM [inhibitor, partial curve]"
21,CCOC(=O)c1[nH]c(C)c(C(=O)N2CCN(c3ccccc3)CC2)c1C,"inconclusive: 36.6 µM [inhibitor, partial curve, poor fit]"
